{"source": "PubChem BioAssay AID588855", "about": "(National Center for Advancing Translational Sciences (NCATS), 2011)", "note": "Out of some 410,000 compounds screened, about 5,000 (1.2%) were called active. The shares of active, inactive and inconclusive entries below differ from those in the screen. The call rests on the fitted dose curve; in most records, active means well fitted inhibition curve with a large enough effect; inconclusive means small, poorly fitted or top-dose-only effect; inactive means no such curve, though single readings can be large or run the other way. A potency beside an inconclusive call is a rough fit, not a confirmed value. Potency means the concentration at half of the fitted maximal effect; tags describe the fitted curve by direction and shape."}
{"test": "qHTS for Inhibitors of TGF-b; further: nearly all actives have a fitted effect of over 65% in size", "details": "HepG2 CAGA-GFP TGF-b/SMAD3 reporter, GFP fluorescence, 18 h, TGF-beta stimulated, 500 pg/mL final; series mostly up to 46.1 µM", "procedure,_shortened": "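GFP signal (ex488/em500-530) from TGF-beta-stimulated HEPG2 CAGA-GFP cells, 500 pg/mL final, 18 h at 37 degrees C in DMEM plus 1% FBS, normalized to unstimulated and DMSO-stimulated controls.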"}
{"compound": "CCc1ccc(S(=O)(=O)ON2C(=O)c3ccccc3C2=O)cc1", "Potency": "inconclusive: 1.58 µM [inhibitor, partial curve, poor fit]"}
{"compound": "Cc1cc(C)c(O)c(CN(C)Cc2cc(Cl)cc(Cl)c2O)c1", "Potency": "inconclusive: 25.1 µM [inhibitor, single point]"}
{"compound": "Cc1ccc(N2C(=O)c3cccc([N+](=O)[O-])c3C2=O)cc1C", "Potency": "inactive"}
{"compound": "C=CCNC(=O)c1onc(CSc2cc(C)cc(C)c2)c1C(=O)NCC=C", "Potency": "inconclusive: 35.5 µM [inhibitor, single point]"}
{"compound": "O=C(CN1CCN(S(=O)(=O)c2ccc3ccccc3c2)CC1)Nc1ccc2c(c1)CCC2", "Potency": "inconclusive: 10 µM [inhibitor, partial curve, poor fit]"}
{"compound": "COc1ccc(-n2c(Cc3ccccc3)nnc2SCc2nc(-c3ccccc3C)no2)cc1", "Potency": "inconclusive: 35.5 µM [inhibitor, single point]"}
{"compound": "CC(CN1CCCCC1)NC(=O)c1cc(-c2ccccn2)nc2ccc(Cl)cc12", "note": "(centres undefined)", "Potency": "inconclusive: 0.562 µM [inhibitor, full curve, poor fit]"}
{"compound": "Cc1cc(C(=O)NN)c2cc(Br)ccc2n1", "Potency": "inconclusive: 25.1 µM [inhibitor, partial curve, poor fit]"}
{"compound": "CC(=O)c1cccc(CN(C)CC2CCCN(CCc3ccccc3C)C2)c1", "note": "(centres undefined)", "Potency": "inactive"}
{"compound": "Cc1cc(C)cc(NC(c2cccc(Cl)c2)c2nnc(-c3ccccc3)o2)c1", "note": "(centres undefined)", "Potency": "inconclusive: 11.2 µM [inhibitor, partial curve]"}
{"compound": "Cc1c(C(=O)N(C)c2ccccc2)sc2nc(-c3ccc(F)cc3)cn12", "Potency": "inconclusive: 20 µM [inhibitor, single point]"}
{"compound": "CCN(CC)c1nc(Oc2ccc(C(=O)OC)cc2)nc(N2CCOCC2)n1", "Potency": "inconclusive: 12.6 µM [inhibitor, partial curve, poor fit]"}
{"compound": "CCc1cc2c(cc3c(=O)n(CC(=O)NC4CCC(C)CC4)nc(CC)n32)s1", "note": "(centres undefined)", "Potency": "inconclusive: 5.62 µM [inhibitor, single point]"}
{"compound": "O=C(CN1CCN(S(=O)(=O)c2ccc(F)cc2)CC1)NC1CCCC1", "Potency": "inactive"}
{"compound": "CC(C)(C)OC(=O)N1CCN(c2ccc(CNC(=O)c3ccc(Cl)cc3)cc2)CC1", "Potency": "inconclusive: 5.62 µM [inhibitor, single point]"}
{"compound": "CC1=CCC[C@@H]2[C@@](C)(CC/C(C)=C/C(=O)O)[C@H](C)CC[C@@]12C", "Potency": "inconclusive: 22.4 µM [inhibitor, partial curve, poor fit]"}
{"compound": "Cc1ccc(CSCCNC(=O)CSCc2ccc([N+](=O)[O-])cc2)cc1", "Potency": "inconclusive: 35.5 µM [inhibitor, single point]"}
{"compound": "CCc1ccccc1NC(=O)CN1CCN(C(=O)C(C)NC(=O)c2ccc(Cl)cc2)CC1", "note": "(centres undefined)", "Potency": "inconclusive: 22.4 µM [inhibitor, single point]"}
{"compound": "CCCCOc1ccc(S(=O)(=O)Nc2ccc(-c3ccc(N4CCCCC4)nn3)cc2)cc1", "Potency": "inconclusive: 0.0891 µM [inhibitor, full curve, poor fit]"}
{"compound": "COC(=O)[C@@]12CCCN1[C@H](c1ccc(-c3ccccc3)cc1)[C@H]1C(=O)N(C)C(=O)[C@H]12", "Potency": "inconclusive: 0.631 µM [inhibitor, partial curve, poor fit]"}
{"compound": "Cc1ccccc1OCC(=O)NCC(c1ccc(Cl)cc1)N1CCOCC1", "note": "(centres undefined)", "Potency": "inconclusive: 20 µM [inhibitor, single point]"}
{"compound": "O=C(Nc1ccccc1N1CCOCC1)c1ccc([N+](=O)[O-])s1", "Potency": "active: 11.2 µM"}
{"compound": "COc1ccc(CNC(=O)c2cnn(-c3ccc(OC)cc3)c2C2CCN(C(=O)OC(C)(C)C)CC2)cc1", "Potency": "active: 11.2 µM"}
{"compound": "COC(=O)C1=NN(C(=O)c2cccc(Br)c2)C(O)(c2ccc(Cl)cc2)C1", "note": "(centres undefined)", "Potency": "inconclusive: 12.6 µM [inhibitor, single point]"}
{"compound": "O=C1N/C(=N/N=C/c2ccccc2O)SC1Cc1ccc(F)cc1", "note": "(centres undefined)", "Potency": "inconclusive: 3.16 µM [inhibitor, full curve]"}
{"compound": "NC(=O)[C@H]1CC2(CC(c3cccc(NC(=O)COc4ccc(Cl)cc4)c3)=NO2)CN1C(=O)c1ccc(Cl)cc1", "note": "(some centres undefined)", "Potency": "active: 17.8 µM"}
{"compound": "COc1cccc(-c2n[nH]c3c2C(c2cccc(O)c2)N(C)C3=O)c1", "note": "(centres undefined)", "Potency": "inactive"}
{"compound": "CCc1cccc(N=c2c([N+](=O)[O-])nn(-c3ccc4c(c3)OCCO4)n2O)c1", "Potency": "inconclusive: 6.31 µM [inhibitor, partial curve, poor fit]"}
{"compound": "COc1ccccc1/C=C(/CC(=O)NCc1ccccc1)c1nc2ccccc2s1", "Potency": "inconclusive: 35.5 µM [inhibitor, single point]"}
{"compound": "CCOc1ccccc1N1CCN(C(=S)Nc2ccc(S(N)(=O)=O)cc2)CC1", "Potency": "inconclusive: 3.55 µM [inhibitor, full curve, poor fit]"}
{"compound": "CN(C)CCN(C(=O)/C=C/c1cccs1)c1nc2ccc(F)cc2s1", "Potency": "inconclusive: 25.1 µM [inhibitor, single point]"}
{"compound": "Cc1ccc(C)c(N2CCN(C(=O)Cc3cn(C)c4ccccc34)CC2)c1", "Potency": "inconclusive: 35.5 µM [inhibitor, single point]"}
{"compound": "CCC(C)c1ccc(NC(=S)NCCn2cc(Br)cn2)cc1", "note": "(centres undefined)", "Potency": "inconclusive: 25.1 µM [inhibitor, single point]"}
{"compound": "COC(=O)CNC(=O)c1cc(-c2ccncc2)nc2c(C)c(Cl)ccc12", "Potency": "inactive"}
{"compound": "CCOC(=O)C1=C2c3cc(OC)c(OC)cc3CC(C)(C)N2C(=O)C1=O", "Potency": "inconclusive: 35.5 µM [inhibitor, single point]"}
{"compound": "CCCN(CCC)c1nc(NC2CCN(C(=O)OCC)CC2)nc(OC)n1", "Potency": "inconclusive: 35.5 µM [inhibitor, single point]"}
{"compound": "Cc1cc2cc(CN(Cc3ccc4c(c3)OCO4)C(=O)c3ccco3)c(=O)[nH]c2cc1C", "Potency": "inconclusive: 35.5 µM [inhibitor, single point]"}
{"compound": "Cc1onc(-c2c(F)cccc2Cl)c1C(=O)OCC(=O)Nc1cccc(S(=O)(=O)N(C)C)c1", "Potency": "inconclusive: 25.1 µM [inhibitor, single point]"}
{"compound": "Cc1ccc(S(=O)(=O)NC2CC(C)(C)N(O)C(C)(C)C2)cc1", "Potency": "inconclusive: 35.5 µM [inhibitor, single point]"}
